Measured values as given in PubChem BioAssay.
Inconclusive results, whose numbers are uncertain, are shown with a selection of clear calls. Calls of active or inactive are those of the source.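 Rule for the calls: active = viability at or below 27.92% in each of two runs, the all-compound median minus 4 SD; inconclusive = no clear call, values can overlap the other calls; inactive = the rest.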

assay: viability of PTEN-null HCT116 cells – cell-based, HCT116 clonal line, CellTiter-Glo, pilot screen (AID 824); conditions: HCT116 PTEN-deleted viability, 60 h, at 10 µM, stronger effect = lower value;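 note: 0% = 20 µM Hyamine control and 100% = vehicle cell control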

Which viability does the source give for `CCCc1[nH]nc2c1C(C1CC=CCC1)C(C#N)=C(N)O2` (stereo not given) here?
Its viability is inconclusive: 38.1%.

With `O=C(Nc1nnc(-c2cccs2)o1)c1cccc(F)c1` as the molecule, how does the viability read?
Its viability is inconclusive: 18.9%.

Which viability does the source give for `Cc1[nH]nc2c1C(C1CC=CCC1)C(C#N)=C(N)O2` (stereo not given) here?
The viability was inconclusive: 31.5%.

For `COc1ccc(N(CC(=O)NCc2ccco2)S(C)(=O)=O)cc1Cl`, which viability is on record?
Its viability is inactive: 91.7%.

Which viability does the source give for `CCOc1cc(OCC)cc(C(=O)Nc2cccnc2)c1` here?
Its viability is inconclusive: 88.8%.

Which viability does the source give for `COC(=O)C(CC(C)C)Oc1ccc2c(C)cc(=O)oc2c1` (stereo not given) here?
Its viability is inactive: 92.6%.

With `Cc1cc(NC(=O)COC(=O)C2CCN(S(=O)(=O)c3ccc(Cl)cc3)CC2)no1` as the molecule, how does the viability read?
The viability was inactive: 98.9%.

With `COc1ccc(Nc2oc(-c3ccccc3Cl)nc2C#N)cc1` as the molecule, how does the viability read?
Its viability is active: 8.29%.

Which viability does the source give for `COc1cc(C(=O)N2CCN(c3ccc(C)cc3C)CC2)cc(OC)c1OC` here?
The viability was inconclusive: 26.2%.

For `Cc1ccc(S(=O)(=O)c2nc(-c3cccs3)oc2SCC(N)=O)cc1`, which viability is on record?
Its viability is inconclusive: 101%.

With `CSc1nc(N2CCN(CCO)CC2)c2sc3nc(-c4ccco4)c4c(c3c2n1)CCC4` as the molecule, how does the viability read?
The viability was inconclusive: 34.7%.

Which viability does the source give for `Cc1ccc(-c2nc(S(=O)(=O)c3ccc(F)cc3)c(SCC(=O)NCC3CCCO3)o2)cc1` (stereo not given) here?
Its viability is inconclusive: 90.8%.

With `Clc1ss/c(=N\c2ccccn2)c1Cl` as the molecule, how does the viability read?
The viability was inactive: 96.8%.

Which viability does the source give for `O/N=C1\CCCc2oc3c(c21)CCCC3` here?
Its viability is inactive: 97.5%.

With `O=C(Nc1ccc2c(c1)OCCO2)c1ccc(NC(=O)C2CCCO2)cc1` (stereo not given) as the molecule, how does the viability read?
The viability was inconclusive: 80.7%.

With `CC(C)Sc1nc(N)c2c3c(sc2n1)CN(C)CC3` as the molecule, how does the viability read?
The viability was inconclusive: 92.5%.

Which viability does the source give for `COc1ccc(-n2nnnc2S(=O)(=O)CC(=O)N2CCCCC2)cc1` here?
Its viability is active: 2.74%.

For `CCCOc1ccc2ccccc2c1/C=N/n1c(C)nnc1-n1nc(C)cc1C`, which viability is on record?
Its viability is active: 19.6%.

With `Brc1cc(Br)c2ncnc(N3CCCCC3)c2c1` as the molecule, how does the viability read?
The viability was inconclusive: 25.1%.

Which viability does the source give for `CC(=O)Nc1ccc(S(=O)(=O)N2CCN(c3nc(NC4CCCC4)c4ccccc4n3)CC2)cc1` here?
Its viability is active: 1.7%.

For `COc1cc(C(=O)N2CCN(c3cccc(C)c3C)CC2)cc(OC)c1OC`, which viability is on record?
Its viability is active: 20.1%.

Which viability does the source give for `c1ccc(-n2ncc3c2ncn2c(C4CCCCC4)nnc32)cc1` here?
The viability was inconclusive: 111%.

With `COc1cccc(C(=O)Nc2nnc(-c3ccc(Cl)cc3)o2)c1` as the molecule, how does the viability read?
Its viability is inconclusive: 29.6%.

Which viability does the source give for `Cc1oc(-c2ccc(Cl)cc2)nc1CN1CCC(C(=O)N2CCc3ccccc3C2)CC1` here?
Its viability is active: 11.8%.

With `CCN(CC)CCNC(=O)c1cc2c(-c3ccc(Cl)cc3)nn(C)c2s1` as the molecule, how does the viability read?
The viability was active: 1.95%.

For `CN1CCN(CCCNC(=O)c2cc3c(-c4ccc(Cl)cc4)nn(C)c3s2)CC1`, which viability is on record?
The viability was active: 2%.

With `CC1CCN(Cc2ccc(NC(=O)C3CCN(c4nnc(-n5cccc5)s4)CC3)cc2)CC1` as the molecule, how does the viability read?
Its viability is inconclusive: 40.6%.

With `CC1(C)CC(N2CCN(c3ccccc3)CC2)=CC(=[N+]2CCCC2)C1` as the molecule, how does the viability read?
Its viability is active: 18.4%.

With `COc1ccc2c(c1)[nH]c1c(N3CCN(Cc4ccc5c(c4)OCO5)CC3)ncnc12` as the molecule, how does the viability read?
The viability was active: 23.1%.

For `CCCC(C)NC(=O)c1ccc(F)cc1` (stereo not given), which viability is on record?
Its viability is inactive: 99.9%.

With `O=C(c1ccco1)N1CCCC(c2nc(-c3ccc(S(=O)(=O)NCc4ccccc4)cc3)no2)C1` (stereo not given) as the molecule, how does the viability read?
The viability was inactive: 47.4%.

For `Cn1c(C(=O)NC2CCCCCC2)cc2c(=O)n(C)c3ccccc3c21`, which viability is on record?
The viability was inconclusive: 26.5%.

Which viability does the source give for `Nc1nc(N2CCOCC2)nc(N(c2ccccc2)c2ccccc2)n1` here?
Its viability is inactive: 92.4%.

For `C=CCn1c(O)c(C2=c3ccccc3=NC2=O)sc1=Nc1ccc(O)cc1`, which viability is on record?
Its viability is active: 1.53%.

With `O=c1cc(-c2c(F)c(F)c(F)c(F)c2F)oc2c(F)c(F)c(F)c(F)c12` as the molecule, how does the viability read?
The viability was active: 1.25%.

For `Cc1cccc(OCc2nnc(SCC(=O)NCCc3ccccc3)o2)c1`, which viability is on record?
Its viability is inactive: 95.2%.

Which viability does the source give for `COc1ccc(Nc2ccc3c(c2)=NC2(CCCCC2)[N+]=3[O-])cc1` here?
Its viability is active: 1.61%.

With `COc1ccccc1N1CCN(CC(=O)Nc2cc(C)nn2-c2nc(C)cc(C)n2)CC1` as the molecule, how does the viability read?
Its viability is inconclusive: 29.2%.

Which viability does the source give for `CC1=C(C(=O)OCc2ccc3c(c2)OCO3)C(c2ccccc2)NC(=O)N1` (stereo not given) here?
The viability was inconclusive: 27.5%.

Which viability does the source give for `S=c1nc(-c2ccccc2)n(CCN2CCOCC2)c2c1CCCC2` here?
Its viability is inconclusive: 91.9%.
